# In the supplement of paper PMC8728848:
# This is one part of the list.
# B1: GSL-I-B4 (Griffonia simplicifolia) (protein)
# chain: NFWSDVEDSIIFQGDANTTAGTLQLCKTNQYGTPLQWSAGRALYSDPVQLWDNKTESVASFYTEFTFFLKITGNGPADGLAFFLAPPDSDVKDAGEYLGLFNKSTATQPSKNQVVAVEFDTWTNPNFPEPSYRHIGINVNSIVSVATKRWEDSDIFSGKIATARISYDGSAEILTVVLSYPDGSDYILSHSVDMRQNLPESVRVGISASTGNNQFLTVYILSWRFSSNLQSTSVKAAMEPEITRTVV
# How the values were obtained:
# Assay in all cases: glycan array binding signal (z-score within array); higher = stronger binding
# Settings in all cases: glycan notation: IUPAC condensed, linker removed
# [1] = biological target: Gal(a1-3)Gal(b1-4)GlcNAc(b1-2)Man
# Method in brief: (§1)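 Arrays were curated from the Consortium for Functional Glycomics database, 3228 in total, and kept only where the protein sequence was available. Binding is expressed as a within-array Z-score. This score was averaged across arrays of the same protein sequence at different concentrations or buffers and across linkers, and negative values can be read as non-binding.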
# [2] = biological target: Gal(a1-3)Gal(b1-4)GlcNAc(b1-2)Man(a1-3)[Gal(a1-3)Gal(b1-4)GlcNAc(b1-2)Man(a1-6)]Man(b1-4)GlcNAc(b1-4)GlcNAc
# Method in brief: as §1
# [3] = biological target: Gal(a1-3)Gal(b1-4)GlcNAc(b1-3)GalNAc
# Method in brief: as §1
# [4] = biological target: Gal(a1-3)Gal(b1-4)GlcNAc(b1-6)GalNAc
# Method in brief: as §1
# [5] = biological target: Gal(a1-3)Gal(b1-4)[Fuc(a1-3)]GlcNAc
# Method in brief: as §1
# [6] = biological target: Gal(a1-3)Gal(b1-4)[Fuc(a1-3)]GlcNAc(b1-2)Man(a1-3)[Gal(a1-3)Gal(b1-4)[Fuc(a1-3)]GlcNAc(b1-2)Man(a1-6)]Man(b1-4)GlcNAc(b1-4)GlcNAc
# Method in brief: as §1
# Gal(a1-3)GalNAc = biological target: Gal(a1-3)GalNAc
# Method in brief: as §1
# [7] = biological target: Gal(a1-3)[Gal(a1-4)]Gal(b1-4)GlcNAc
# Method in brief: as §1
# [8] = biological target: Gal(a1-4)Gal(b1-3)GlcNAc(b1-2)Man(a1-3)[Gal(a1-4)Gal(b1-3)GlcNAc(b1-2)Man(a1-6)]Man(b1-4)GlcNAc(b1-4)GlcNAc
# Method in brief: as §1
# Gal(a1-4)Gal(b1-4)Glc = biological target: Gal(a1-4)Gal(b1-4)Glc
# Method in brief: as §1
# Gal(a1-4)Gal(b1-4)GlcNAc = biological target: Gal(a1-4)Gal(b1-4)GlcNAc
# Method in brief: as §1
# [9] = biological target: Gal(a1-4)Gal(b1-4)GlcNAc(b1-2)Man(a1-3)[Gal(a1-4)Gal(b1-4)GlcNAc(b1-2)Man(a1-6)]Man(b1-4)GlcNAc(b1-4)GlcNAc
# Method in brief: as §1
# [10] = biological target: Gal(a1-4)Gal(b1-4)GlcNAc(b1-3)Gal(b1-4)Glc
# Method in brief: as §1
# Gal(a1-4)GlcNAc = biological target: Gal(a1-4)GlcNAc
# Method in brief: as §1
# Gal(a1-6)Glc = biological target: Gal(a1-6)Glc
# Method in brief: as §1
# Gal(b1-2)Gal = biological target: Gal(b1-2)Gal
# Method in brief: as §1
# Gal(b1-3)Gal = biological target: Gal(b1-3)Gal
# Method in brief: as §1
# Gal(b1-3)Gal(b1-4)GlcNAc = biological target: Gal(b1-3)Gal(b1-4)GlcNAc
# Method in brief: as §1
# Gal(b1-3)GalNAc = biological target: Gal(b1-3)GalNAc
# Method in brief: as §1
# [11] = biological target: Gal(b1-3)GalNAc(a1-3)[Fuc(a1-2)]Gal(b1-4)Glc
# Method in brief: as §1
# [12] = biological target: Gal(b1-3)GalNAc(a1-3)[Fuc(a1-2)]Gal(b1-4)GlcNAc
# Method in brief: as §1
# Gal(b1-3)GalNAc(b1-3)Gal = biological target: Gal(b1-3)GalNAc(b1-3)Gal
# Method in brief: as §1
# [13] = biological target: Gal(b1-3)GalNAc(b1-3)Gal(a1-4)Gal(b1-4)Glc
# Method in brief: as §1
# [14] = biological target: Gal(b1-3)GalNAc(b1-4)Gal(b1-4)Glc
# Method in brief: as §1
# [15] = biological target: Gal(b1-3)GalNAc(b1-4)[Neu5Ac(a2-3)]Gal(b1-4)Glc
# Method in brief: as §1
# Gal(b1-3)GlcNAc = biological target: Gal(b1-3)GlcNAc
# Method in brief: as §1
# [16] = biological target: Gal(b1-3)GlcNAc(a1-3)Gal(b1-4)GlcNAc
# Method in brief: as §1
# [17] = biological target: Gal(b1-3)GlcNAc(a1-6)Gal(b1-4)GlcNAc
# Method in brief: as §1
# Gal(b1-3)GlcNAc(b1-2)Man = biological target: Gal(b1-3)GlcNAc(b1-2)Man
# Method in brief: as §1
# [18] = biological target: Gal(b1-3)GlcNAc(b1-2)Man(a1-3)[Gal(b1-3)GlcNAc(b1-2)Man(a1-6)]Man(b1-4)GlcNAc(b1-4)GlcNAc
# Method in brief: as §1
# [19] = biological target: Gal(b1-3)GlcNAc(b1-2)Man(a1-3)[Gal(b1-3)GlcNAc(b1-2)Man(a1-6)]Man(b1-4)GlcNAc(b1-4)[Fuc(a1-6)]GlcNAc
# Method in brief: as §1
# [20] = biological target: Gal(b1-3)GlcNAc(b1-2)Man(a1-3)[GlcNAc(b1-4)][Gal(b1-3)GlcNAc(b1-2)Man(a1-6)]Man(b1-4)GlcNAc(b1-4)GlcNAc
# Method in brief: as §1
# [21] = biological target: Gal(b1-3)GlcNAc(b1-2)[Gal(b1-3)GlcNAc(b1-6)]Man(a1-6)[Gal(b1-3)GlcNAc(b1-2)Man(a1-3)]Man(b1-4)GlcNAc(b1-4)GlcNAc
# Method in brief: as §1
# [22] = biological target: Gal(b1-3)GlcNAc(b1-3)Gal(b1-3)GlcNAc
# Method in brief: as §1
# [23] = biological target: Gal(b1-3)GlcNAc(b1-3)Gal(b1-4)Glc
# Method in brief: as §1
# [24] = biological target: Gal(b1-3)GlcNAc(b1-3)Gal(b1-4)GlcNAc
# Method in brief: as §1
# [25] = biological target: Gal(b1-3)GlcNAc(b1-3)Gal(b1-4)GlcNAc(b1-2)Man(a1-3)[Gal(b1-3)GlcNAc(b1-3)Gal(b1-4)GlcNAc(b1-2)Man(a1-6)]Man(b1-4)GlcNAc(b1-4)GlcNAc
# Method in brief: as §1
binder,measurement,setting,value
B1,glycan array binding signal (z-score),[1],0.95
same,glycan array binding signal (z-score),[2],7.78
same,glycan array binding signal (z-score),[3],0.884
same,glycan array binding signal (z-score),[4],1.65
same,glycan array binding signal (z-score),[5],6.03
same,glycan array binding signal (z-score),[6],1.14
same,glycan array binding signal (z-score),Gal(a1-3)GalNAc,-0.087
same,glycan array binding signal (z-score),[7],1.71
same,glycan array binding signal (z-score),[8],5.37
same,glycan array binding signal (z-score),Gal(a1-4)Gal(b1-4)Glc,0.394
same,glycan array binding signal (z-score),Gal(a1-4)Gal(b1-4)GlcNAc,0.457
same,glycan array binding signal (z-score),[9],1.52
same,glycan array binding signal (z-score),[10],0.296
same,glycan array binding signal (z-score),Gal(a1-4)GlcNAc,13.8
same,glycan array binding signal (z-score),Gal(a1-6)Glc,-0.183
same,glycan array binding signal (z-score),Gal(b1-2)Gal,-0.173
same,glycan array binding signal (z-score),Gal(b1-3)Gal,-0.186
same,glycan array binding signal (z-score),Gal(b1-3)Gal(b1-4)GlcNAc,-0.182
same,glycan array binding signal (z-score),Gal(b1-3)GalNAc,-0.19
same,glycan array binding signal (z-score),[11],-0.208
same,glycan array binding signal (z-score),[12],-0.212
same,glycan array binding signal (z-score),Gal(b1-3)GalNAc(b1-3)Gal,-0.229
same,glycan array binding signal (z-score),[13],-0.12
same,glycan array binding signal (z-score),[14],-0.114
same,glycan array binding signal (z-score),[15],-0.227
same,glycan array binding signal (z-score),Gal(b1-3)GlcNAc,-0.164
same,glycan array binding signal (z-score),[16],-0.209
same,glycan array binding signal (z-score),[17],-0.155
same,glycan array binding signal (z-score),Gal(b1-3)GlcNAc(b1-2)Man,-0.171
same,glycan array binding signal (z-score),[18],-0.151
same,glycan array binding signal (z-score),[19],-0.116
same,glycan array binding signal (z-score),[20],-0.151
same,glycan array binding signal (z-score),[21],-0.138
same,glycan array binding signal (z-score),[22],-0.181
same,glycan array binding signal (z-score),[23],-0.16
same,glycan array binding signal (z-score),[24],-0.228
same,glycan array binding signal (z-score),[25],-0.208
